86 sequences from the supplement of paper PMC4166925 can be followed below.

± gives the standard deviation of the averaged measurements. In all, about 33,000 sequences were measured (“E-score (dimensionless, -0.5 to 0.5)”: median about -0.049, highest 2% from about 0.37 on). This is one part of the list.

The assay has as its system T1, PmTbr T-box DNA-binding domain (GST fusion).
T1 sequence: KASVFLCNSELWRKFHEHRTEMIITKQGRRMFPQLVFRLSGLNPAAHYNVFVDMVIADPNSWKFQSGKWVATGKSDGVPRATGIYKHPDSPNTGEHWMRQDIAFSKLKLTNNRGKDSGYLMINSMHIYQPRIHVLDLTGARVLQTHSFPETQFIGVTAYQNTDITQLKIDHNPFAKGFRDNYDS
Kind of assay: PBM E-score of 8-mer (E-score (dimensionless, -0.5 to 0.5)); Tbr is Tbrain of the sea star Patiria miniata (Pm) or the sea urchin Strongylocentrotus purpuratus (Sp); higher = stronger binding preference; most listed sequences are background and not binding sites. The conditions noted are these: the construct has about 5 more residues each side. A digest of the protocol:
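GST-fused Tbr T-box DNA-binding domains (the whole T-box plus about five flanking residues) were expressed in BL21 E. coli at 20 °C and purified by glutathione affinity chromatography. Universal Agilent oligonucleotide arrays were made double-stranded by primer extension, incubated with 200 nM protein in PBS (pH 7.5), then scanned and quantified. Every ungapped 8-mer was scored from probe intensities. The Universal PBM Analysis Suite gave each word an enrichment E-score, averaged over duplicate arrays.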
As to TAACCGTA, the “PBM E-score of 8-mer” value was -0.131 ± 0.015.
Consider GGACCCAA, for which the “PBM E-score of 8-mer” value was -0.121 ± 0.032.
With GCTATTCA the figure was 0.0196 ± 0.074; with ATCCAGGG, 0.00813 ± 0.051; with AGTCCGGG, -0.145 ± 0.1.
Take CGTCGCCA: the “PBM E-score of 8-mer” value was found to be 0.105 ± 0.018.
Under CTGCCTAC stands -0.225 ± 0.061; under GCCAGCTA, -0.0583 ± 0.0056; under CGGGTGAA, -0.316 ± 0.026.
Under GGCCGGAC stands -0.0922 ± 0.022; under CCCGCGCG, 0.0753 ± 0.0015.
As for GAGAGAAA, the “PBM E-score of 8-mer” value amounted to 0.0585 ± 0.061.
Under GACTTTGC stands -0.0821 ± 0.035; under AGTATCTC, -0.13 ± 0.03.
Under AAAACATA stands -0.126 ± 0.014.
With GACGGATC the figure was -0.191 ± 0.13; with AATACGTG, 0.0957 ± 0.056.
As for ATTGATTG, the “PBM E-score of 8-mer” value is -0.0938 ± 0.051.
With ATAAATTG the figure was -0.147 ± 0.003; with GCTTTAAC, -0.1 ± 0.071; with CTAGGATA, 0.0212 ± 0.018.
With ACGCTATG the figure was -0.00382 ± 0.031.
With CCATTCCC the figure was -0.18 ± 0.029.
Consider CGTGAACG, for which the “PBM E-score of 8-mer” value is 0.274 ± 0.059.
Under CGTTCACC stands -0.0379 ± 0.073; under AAAACGTA, -0.115 ± 0.041; under AATAACCT, -0.239 ± 0.034.
Turning to AGGCATAC, the “PBM E-score of 8-mer” value is -0.124 ± 0.018.
Under ACATTCAA stands -0.0911 ± 0.079.
With GAGTGTCC the figure was -0.0246 ± 0.07; with AGCTTACC, -0.294 ± 0.025; with CCATCATA, -0.232 ± 0.0034.
Under GAGGTGAC stands 0.4496 ± 0.0027.
As for CGGAATGC, the “PBM E-score of 8-mer” value is -0.173 ± 0.018.
With ACGTCACG the figure was 0.144 ± 0.03; with AATGGCCC, -0.26 ± 0.073.
With AAAGCAGT the figure was -0.144 ± 0.042.
With GAGACAAC the figure was -0.0112 ± 0.012; with CTTATCTC, 0.0586 ± 0.016.
As for AACGAGGG, the “PBM E-score of 8-mer” value is -0.2731 ± 0.0027.
In the case of CAGACCTG, the “PBM E-score of 8-mer” value was -0.0919 ± 0.036.
Under ACTCAGAA stands 0.0631 ± 0.058; under AGGTTAAT, -0.147 ± 0.032; under CCGGGACA, -0.241 ± 0.093.
With GCTGTACC the figure was -0.115 ± 0.016.
With AAGGTGCG the figure was 0.45 ± 0.014.
Regarding AGGATTAG, the “PBM E-score of 8-mer” value is -0.247 ± 0.0091.
With CGCACGCC the figure was 0.194 ± 0.07; with ACTCTCTG, -0.0739 ± 0.034.
On to ATTTGTTC, for which the “PBM E-score of 8-mer” value was -0.033 ± 0.05.
With GGTCGTAA the figure was -0.104 ± 0.072.
For the sequence AACTCTTA, the “PBM E-score of 8-mer” value is -0.37 ± 0.015.
As to GGCCCGAC, the “PBM E-score of 8-mer” value is -0.0864 ± 0.0056.
With GACATCGA the figure was -0.0159 ± 0.0023.
Under CGCACCGC stands 0.222 ± 0.063.
With ATCGAGGA the figure was -0.338 ± 0.046; with ATGTATTA, 0.00739 ± 0.068.
Consider TACTCGCA, for which the “PBM E-score of 8-mer” value was 0.13 ± 0.0099.
With AAGCTACC the figure was -0.144 ± 0.013; with ACACTCAA, 0.234 ± 0.017; with GTTACGGA, -0.14526 ± 0.00014.
With ACCTGCCC the figure was 0.126 ± 0.013; with AATGCCAA, 0.114 ± 0.0042; with AACGGTCC, -0.0739 ± 0.0076.
On to AAACAAGC, for which the “PBM E-score of 8-mer” value was -0.0443 ± 0.068.
With GCTATACC the figure was -0.0444 ± 0.016; with AGCACCTG, 0.415 ± 0.0079.
Under CGCTCACC stands 0.0475 ± 0.083; under ATCAGCAA, -0.157 ± 0.077; under AAAGACCC, -0.289 ± 0.021.
Under ATGCTTGA stands -0.0981 ± 0.12.
Take ATGCGCGA: the “PBM E-score of 8-mer” value is 0.286 ± 0.011.
With TCGATCCA the figure was -0.0612 ± 0.023.
With ACTGGAGA the figure was -0.158 ± 0.018.
Under ATCACAAG stands 0.278 ± 0.003; under AGAGGACT, -0.267 ± 0.051; under AGGTTTAC, -0.0264 ± 0.055.
For CACGACAA, the “PBM E-score of 8-mer” value was determined as 0.123 ± 0.016.
With CTCCCCTC the figure was -0.123 ± 0.017; with AAGTACAA, -0.1659 ± 0.00023.
In the case of ATCCGATA, the “PBM E-score of 8-mer” value was -0.265 ± 0.011.
Take GGGTATCA: the “PBM E-score of 8-mer” value is -0.0465 ± 0.028.
In the case of CTCTTTTC, the “PBM E-score of 8-mer” value is -0.112 ± 0.059.
With CTGAGAAA the figure was 0.00608 ± 0.019; with CTCCCGGA, -0.16 ± 0.076.
Under AAGATGCG stands 0.044 ± 0.053.
